61 variants from the supplement of paper PMC11876631 can be followed below.

± gives the standard deviation of the averaged measurements. Laboratory Escherichia coli strains with one amino-acid change in an essential protein, pooled on minimal glucose agar with carbenicillin or gentamicin at twice the control MIC (plus kanamycin and chloramphenicol for the plasmids), 48 h. Fold change of barcode share against drug-free plates; higher = less susceptible. Active = above 20 in both replicates (the paper's putatively resistant). '<' = one read or none on drug, '>' = one read or none on a drug-free plate. Shares are relative, so most strains fall below 1 when a few take over. Listed are strains with at least 15 reads on both drug-free plates, and hits; most hits rest on fewer reference reads. Replicate rank correlation about 0.5. Edits are read from barcodes. Bounds are passed on as bounds.

Sequences and labels used below:
B1: fes; numbered along this chain (parent)
chain: MTALKVGSESWWQSKHGPEWQRLNDEMFEVTFWWRDPQGSEEYSTIKRVWVYITGVTDHHQNSQPQSMQRIAGTNVWQWTTQLNANWRGSYCFIPTERDDIFSVPSPDRLELREGWRKLLPQAIADPLNLQSWKGGRGHAVSALEMPQAPLQPGWDCPQAPEIPAKEIIWKSERLKKSRRVWIFTTGDATAEERPLAVLLDGEFWAQSMPVWPVLTSLTHRQQLPPAVYVLIDAIDTTHRAHELPCNADFWLAVQQELLPLVKAIAPFSDRADRTVVAGQSFGGLSALYAGLHWPERFGCVLSQSGSYWWPHRGGQQEGVLLEKLKAGEVSAEGLRIVLEAGIREPMIMRANQALYAQLHPIKESIFWRQVDGGHDALCWRGGLMQGLIDLWQPLFHDRS
B2: lpxH; numbered along this chain (parent)
chain: MATLFIADLHLCVEEPAITAGFLRFLAGEARKADALYILGDLFEAWIGDDDPNPLHRKMAAAIKAVSDSGVPCYFIHGNRDFLLGKRFARESGMTLLPEEKVLELYGRRVLIMHGDTLCTDDAGYQAFRAKVHKPWLQTLFLALPLFVRKRIAARMRANSKEANSSKSLAIMDVNQNAVVSAMEKHQVQWLIHGHTHRPAVHELIANQQPAFRVVLGAWHTEGSMVKVTADDVELIHFPF
B3: dxs; numbered along this chain (parent)
chain: MSFDIAKYPTLALVDSTQELRLLPKESLPKLCDELRRYLLDSVSRSSGHFASGLGTVELTVALHYVYNTPFDQLIWDVGHQAYPHKILTGRRDKIGTIRQKGGLHPFPWRGESEYDVLSVGHSSTSISAGIGIAVAAEKEGKNRRTVCVIGDGAITAGMAFEAMNHAGDIRPDMLVILNDNEMSISENVGALNNHLAQLLSGKLYSSLREGGKKVFSGVPPIKELLKRTEEHIKGMVVPGTLFEELGFNYIGPVDGHDVLGLITTLKNMRDLKGPQFLHIMTKKGRGYEPAEKDPITFHAVPKFDPSSGCLPKSSGGLPSYSKIFGDWLCETAAKDNKLMAITPAMREGSGMVEFSRKFPDRYFDVAIAEQHAVTFAAGLAIGGYKPIVAIYSTFLQRAYDQVLHDVAIQKLPVLFAIDRAGIVGADGQTHQGAFDLSYLRCIPEMVIMTPSDENECRQMLYTGYHYNDGPSAVRYPRGNAVGVELTPLEKLPIGKGIVKRRGEKLAILNFGTLMPEAAKVAESLNATLVDMRFVKPLDEALILEMAASHEALVTVEENAIMGGAGSGVNEVLMAHRKPVPVLNIGLPDFFIPQGTQEEMRAELGLDAAGMEAKIKAWLA
B4: ubiA; numbered along this chain (parent)
chain: MEWSLTQNKLLAFHRLMRTDKPIGALLLLWPTLWALWVATPGVPQLWILAVFVAGVWLMRAAGCVVNDYADRKFDGHVKRTANRPLPSGAVTEKEARALFVVLVLISFLLVLTLNTMTILLSIAALALAWVYPFMKRYTHLPQVVLGAAFGWSIPMAFAAVSESVPLSCWLMFLANILWAVAYDTQYAMVDRDDDVKIGIKSTAILFGQYDKLIIGILQIGVLALMAIIGELNGLGWGYYWSILVAGALFVYQQKLIANREREACFKAFMNNNYVGLVLFLGLAMSYWHF

The first series covers variants of B1. Kind of series: barcode share on antibiotic plates over drug-free plates; higher = less susceptible. The following applies: with Escherichia coli (laboratory strain); antibiotic: carbenicillin; 2× MIC (3.1 µg/mL). How it is done:
(§1)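 A pool of E. coli strains, each edited to carry one amino-acid change in an essential protein, was grown for 48 h on minimal glucose agar with or without antibiotic; strain barcodes were sequenced; mean of two replicates.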
Consider V301W, for which the “fold change of barcode share” value was > 60.4 [active]. As to V301D, the “fold change of barcode share” value is > 38.5 [active].

In the case of V301P, the “fold change of barcode share” value is 2.33 ± 0.52. For V301Q, the “fold change of barcode share” value was 2.86 ± 0.18. Still for that read-out and setting: then V262W, with 1.27 ± 0.22; and V262A, with 0.728 ± 0.36; and V262P, with 1.81 ± 0.83. On to V262Q, for which the “fold change of barcode share” value is 1.23 ± 0.49.

Still in this series, the particulars now being: with Escherichia coli (laboratory strain); antibiotic: gentamicin; 2× MIC (MIC 0.45 µg/mL).
On to V301P, for which the “fold change of barcode share” value amounted to 0.106 ± 0.11. Regarding V301Q, the “fold change of barcode share” value is 0.0849 ± 0.06. Take V262W: the “fold change of barcode share” value was determined as 0.159 ± 0.17. Take V262A: the “fold change of barcode share” value came to 0.0437 ± 0.054. On the same count and under the same terms, then V262P, with 0.0986 ± 0.11; and V262Q, with 0.0838 ± 0.077.

The variants in a further series derive from B2. Described as above. The following applies: with Escherichia coli (laboratory strain); antibiotic: gentamicin; 2× MIC (MIC 0.45 µg/mL). How it is done:
as §1
Regarding L216Q, the “fold change of barcode share” value is less than 0.0157. Regarding L216A, the “fold change of barcode share” value was less than 0.0151. Same read-out and setting: then V215D, with less than 0.00187; and V215A, with 0.00341 ± 0.0019.

Variants of B3 are the subject of a further series. The description is as above. The following applies: with Escherichia coli (laboratory strain); antibiotic: carbenicillin; 2× MIC (3.1 µg/mL). How it is done:
as §1
I443A: the “fold change of barcode share” value was 1.28 ± 0.48.

On to I443P, for which the “fold change of barcode share” value turned out to be 0.382 ± 0.019.

As to I443Q, the “fold change of barcode share” value was found to be 0.352 ± 0.042.

As to I443D, the “fold change of barcode share” value is 0.205 ± 0.024. Regarding I448W, the “fold change of barcode share” value was found to be 0.229 ± 0.09.

For I448Q, the “fold change of barcode share” value stood at 0.303 ± 0.024. For the variant I448A, the “fold change of barcode share” value is 0.309 ± 0.04. In the case of I75A, the “fold change of barcode share” value worked out at 0.227 ± 0.094. In the case of L573D, the “fold change of barcode share” value was 0.354 ± 0.082.

Consider L573Q, for which the “fold change of barcode share” value worked out at 0.302 ± 0.0056. As for L573W, the “fold change of barcode share” value worked out at 0.316 ± 0.034. As to L573A, the “fold change of barcode share” value is 0.223 ± 0.084. On to L573P, for which the “fold change of barcode share” value was 0.351 ± 0.022. With M574P, the “fold change of barcode share” value came to 0.442 ± 0.26. On to M574Q, for which the “fold change of barcode share” value was 0.331 ± 0.01. Consider M574D, for which the “fold change of barcode share” value amounted to 0.307 ± 0.041. For M574A, the “fold change of barcode share” value came to 0.486 ± 0.08. For M574W, the “fold change of barcode share” value was 0.373 ± 0.19.

Regarding V389Q, the “fold change of barcode share” value worked out at 0.251 ± 0.18.

The same series, now with this note: with Escherichia coli (laboratory strain); antibiotic: gentamicin; 2× MIC (MIC 0.45 µg/mL).
For I443A, the “fold change of barcode share” value is 0.117 ± 0.15. I443P: the “fold change of barcode share” value was determined as 0.00825 ± 0.0073. As to I443Q, the “fold change of barcode share” value is 0.0093 ± 0.011. For I443W, the “fold change of barcode share” value is > 88.1 [active].

Take I448W: the “fold change of barcode share” value is 0.244 ± 0.33. In the case of I448Q, the “fold change of barcode share” value was less than 0.0113. Consider I448A, for which the “fold change of barcode share” value is less than 0.019. Take I75A: the “fold change of barcode share” value stood at 0.016 ± 0.013. Consider L573D, for which the “fold change of barcode share” value is less than 0.00467. L573Q: the “fold change of barcode share” value amounted to 0.005 ± 0.00033. On the same count and under the same terms, then L573W, with 0.00915 ± 0.0062; and L573A, with 0.00617 ± 0.0021; and L573P, with less than 0.00365. Still for that read-out and setting: then M574P, with less than 0.00459. Consider M574Q, for which the “fold change of barcode share” value came to 0.00399 ± 0.0022. The same measure, in the same setting: with M574D the figure was 0.00892 ± 0.01; with M574A, 0.00496 ± 0.004.

With M574W, the “fold change of barcode share” value is 0.00319 ± 0.0027.

V389Q: the “fold change of barcode share” value is less than 0.0181.

Variants of B4 are the subject of the next series. The description is as above. The note with it: with Escherichia coli (laboratory strain); antibiotic: carbenicillin; 2× MIC (3.1 µg/mL). How it is done: as §1
On to F173A, for which the “fold change of barcode share” value came out at 0.41 ± 0.27. Take F173D: the “fold change of barcode share” value is 0.431 ± 0.093. F173W: the “fold change of barcode share” value was found to be 0.0843 ± 0.017. The same measure, in the same setting: then F173Q, with 0.791 ± 0.047; and L174W, with 0.346 ± 0.037; and L174A, with 0.426 ± 0.18. Same read-out and setting: with L174P the figure was 0.301 ± 0.16; with F52W, 0.593 ± 0.064. Consider F52D, for which the “fold change of barcode share” value was 0.616 ± 0.18. With F52A, the “fold change of barcode share” value was found to be 0.516 ± 0.028.

In the case of F52Q, the “fold change of barcode share” value worked out at 0.435 ± 0.019. In the case of L49P, the “fold change of barcode share” value was found to be 0.993 ± 0.12. On to L49D, for which the “fold change of barcode share” value stood at 0.703 ± 0.028. As to L49A, the “fold change of barcode share” value was 0.866 ± 0.18. As to L49Q, the “fold change of barcode share” value turned out to be 0.685 ± 0.12. Consider L49W, for which the “fold change of barcode share” value was 0.645 ± 0.31.

Consider V51Q, for which the “fold change of barcode share” value was 1.3 ± 0.29. Regarding V51A, the “fold change of barcode share” value came out at 0.469 ± 0.022.

On to V51D, for which the “fold change of barcode share” value came to 0.742 ± 0.049. Still for that read-out and setting: then V51W, with 0.348 ± 0.14. Turning to V51P, the “fold change of barcode share” value was found to be 0.821 ± 0.31. For the variant V145Q, the “fold change of barcode share” value is 0.574 ± 0.073. With V145A, the “fold change of barcode share” value is 0.322 ± 0.054.

On to V145W, for which the “fold change of barcode share” value is 0.232 ± 0.099.

For the variant V145P, the “fold change of barcode share” value stood at 0.739 ± 0.43.

Staying with this series, now noted: with Escherichia coli (laboratory strain); antibiotic: gentamicin; 2× MIC (MIC 0.45 µg/mL).
On to F173A, for which the “fold change of barcode share” value was determined as 0.0612 ± 0.074.

F173W: the “fold change of barcode share” value worked out at 0.162 ± 0.14. Still for that read-out and setting: then L174W, with less than 0.0135.

L174A: the “fold change of barcode share” value was less than 0.0116.

With L174P, the “fold change of barcode share” value is less than 0.0129.

In the case of L174D, the “fold change of barcode share” value is 0.0287 ± 0.0095. For L174Q, the “fold change of barcode share” value was less than 0.0171. Turning to F52W, the “fold change of barcode share” value was 0.0388 ± 0.042. In the case of F52D, the “fold change of barcode share” value stood at 0.0416 ± 0.011.

In the case of F52A, the “fold change of barcode share” value was found to be 0.0392 ± 0.029. Still for that read-out and setting: with F52P the figure was > 2100 [active]; with F52Q, 0.0454 ± 0.032; with L49P, 0.0746 ± 0.062. On to L49D, for which the “fold change of barcode share” value was determined as 0.096 ± 0.057. As for L49A, the “fold change of barcode share” value was determined as 0.245 ± 0.33. Same read-out and setting: then L49Q, with 0.115 ± 0.0031; and L49W, with 0.0732 ± 0.05; and V51Q, with 0.0656 ± 0.052. Consider V51A, for which the “fold change of barcode share” value is 0.0448 ± 0.039. V51D: the “fold change of barcode share” value was determined as 0.0843 ± 0.061. Regarding V51W, the “fold change of barcode share” value turned out to be 0.0209 ± 0.012. Still for that read-out and setting: with V51P the figure was 0.0591 ± 0.057. Regarding V145Q, the “fold change of barcode share” value stood at 0.0513 ± 0.051. Regarding V145A, the “fold change of barcode share” value turned out to be 0.0225 ± 0.011. On the same count and under the same terms, then V145W, with 0.0122 ± 0.0037. Consider V145P, for which the “fold change of barcode share” value was found to be 0.186 ± 0.095. Same read-out and setting: then V145D, with > 1180 [active].
